Reference: the supplement of paper PMC3334620
The full ranking holds about 33,000 sequences; the median of “E-score (-0.5 to 0.5)” is about -0.035, and the highest 2% start at about 0.34. The list shows a part of the results.

Biological target: T1, Mot3 (UniProt P54785)
T1 sequence: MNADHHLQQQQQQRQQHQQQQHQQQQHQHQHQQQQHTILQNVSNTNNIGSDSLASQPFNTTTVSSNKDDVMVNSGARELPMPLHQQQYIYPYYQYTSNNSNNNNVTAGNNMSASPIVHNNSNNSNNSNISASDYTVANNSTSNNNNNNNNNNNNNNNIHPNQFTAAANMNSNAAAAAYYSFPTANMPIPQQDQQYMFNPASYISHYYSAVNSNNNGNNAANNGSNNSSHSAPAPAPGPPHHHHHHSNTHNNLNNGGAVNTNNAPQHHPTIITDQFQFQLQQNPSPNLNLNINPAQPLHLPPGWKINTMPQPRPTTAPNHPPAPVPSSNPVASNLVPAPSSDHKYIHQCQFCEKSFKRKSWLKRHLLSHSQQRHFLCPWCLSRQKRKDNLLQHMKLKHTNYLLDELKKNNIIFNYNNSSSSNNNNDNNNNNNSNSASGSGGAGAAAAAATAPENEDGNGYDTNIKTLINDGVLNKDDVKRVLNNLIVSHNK
Test: PBM E-score (8-mer binding enrichment) (E-score (-0.5 to 0.5)); higher = stronger / more preferred TF binding; most listed sequences are background and not binding sites
Conditions: protein concentration: 200 nM; construct: GST-full length
Method: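 Universal 'all 10-mer' protein binding microarrays (Agilent AMADID 015681) probed with GST-tagged S. cerevisiae TFs (full-length or DBD) made by in vitro transcription/translation (PURExpress), about 100-200 nM. Bound TF was detected with fluorescent anti-GST. Each ungapped 8-mer (which stands for itself and its reverse complement) is scored by the PBM enrichment score (E-score), a modified Wilcoxon-Mann-Whitney statistic from -0.5 to +0.5, computed with the Universal PBM Analysis Suite. Scale: above 0.35 generally sequence-specific binding.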

First: CCGCACCC
Second: GGGACTGA
The “PBM E-score” value of the first is higher: -0.177 for the first, -0.187 for the second.

Compared with CTGGATGA, CCGCTAGA is lower in “PBM E-score” value: -0.143 for the first, -0.196 for the second.

Going from AGAAAGCT to AGTAGGAG, the “PBM E-score” value falls from -0.0593 to -0.251.

Compared with GGGGTAAA, AGAAGGTG is lower in “PBM E-score” value: -0.0182 for the first, -0.0242 for the second.

Going from ATTATAGC to ATGCCACC, the “PBM E-score” value rises from -0.221 to -0.206.

Compared with CGGCGAGA, CTACATAC is higher in “PBM E-score” value: -0.214 for the first, 0.301 for the second.

Going from ATGCGTAG to ACGATACT, the “PBM E-score” value falls from 0.152 to -0.0988.

Compared with AATGCCAG, CCTGCATC is higher in “PBM E-score” value: -0.201 for the first, 0.0447 for the second.

First: CAACAACA
Second: GTAGTAGA
The “PBM E-score” value of the first is higher: 0.315 for the first, 0.166 for the second.

First: CGCCAGCA
Second: TATATGCA
The “PBM E-score” value of the first is lower: -0.0712 for the first, 0.101 for the second.

Compared with AGTACGAA, TAGTCGAA is lower in “PBM E-score” value: -0.0897 for the first, -0.136 for the second.

First: GCTGGCGA
Second: CGGAGCAG
The “PBM E-score” value of the first is higher: -0.235 for the first, -0.253 for the second.

Going from ATGCCTCA to CAGTGGAC, the “PBM E-score” value falls from 0.111 to -0.177.

Going from GGTGTAAA to CTACACTA, the “PBM E-score” value falls from 0.297 to 0.135.

First: CACGTTAC
Second: CTTACTTA
The “PBM E-score” value of the first is higher: 0.269 for the first, 0.197 for the second.

First: CTGTAGGC
Second: TCTCATCA
The “PBM E-score” value of the first is higher: 0.285 for the first, -0.124 for the second.

First: ATTAATCG
Second: ATCACTTA
The “PBM E-score” value of the first is lower: 0.00546 for the first, 0.0631 for the second.

Going from GTGGGGCA to GGCTCTGA, the “PBM E-score” value rises from -0.356 to 0.00444.

Going from AATTGTGG to ACAGGTCG, the “PBM E-score” value falls from 0.0614 to -0.129.

First: AACCAACC
Second: ATAGTTAC
The “PBM E-score” value of the first is lower: -0.0647 for the first, 0.203 for the second.

Compared with CCGGCCAA, GTCGTTCA is higher in “PBM E-score” value: -0.239 for the first, -0.0486 for the second.

Compared with GATTTAAC, CTACGGCA is lower in “PBM E-score” value: 0.149 for the first, -0.118 for the second.

Going from ATTATCCA to CTGTGTTA, the “PBM E-score” value rises from -0.0189 to 0.334.

First: GGTTTCTA
Second: AACCATCC
The “PBM E-score” value of the first is higher: 0.0968 for the first, -0.182 for the second.

Compared with AACCTACC, AATACGAG is higher in “PBM E-score” value: -0.0754 for the first, 0.109 for the second.

Compared with AATGAACG, CAGGCTCC is higher in “PBM E-score” value: 0.115 for the first, 0.28 for the second.

First: AACAAAAT
Second: GCGGGGCC
The “PBM E-score” value of the first is higher: 0.191 for the first, -0.167 for the second.

Going from ACAGTCCG to ACCCTATG, the “PBM E-score” value rises from -0.162 to 0.0532.

First: CGTATTAA
Second: ACTCTCGA
The “PBM E-score” value of the first is higher: 0.165 for the first, 0.109 for the second.

Going from AGCTAGGG to CAGCCCAC, the “PBM E-score” value rises from -0.117 to -0.114.

Going from AAAGCTGT to GCCAATAA, the “PBM E-score” value rises from -0.108 to -0.0458.

Compared with CTTCTTAC, ACTAAGTC is lower in “PBM E-score” value: 0.155 for the first, -0.138 for the second.

Going from TATAAAGA to CCCGGCCC, the “PBM E-score” value falls from 0.0854 to -0.304.

Going from ACTATCGC to AACCACGG, the “PBM E-score” value rises from -0.275 to -0.234.

Going from ATATAATC to GCATGGCC, the “PBM E-score” value falls from 0.149 to -0.0896.

First: TCGTACGA
Second: GCCTTCCC
The “PBM E-score” value of the first is higher: 0.0481 for the first, -0.0975 for the second.

Going from CGGCATTA to ATTGGGCC, the “PBM E-score” value falls from -0.0232 to -0.086.

Compared with CCCAGCGG, CCGCTCTA is higher in “PBM E-score” value: -0.169 for the first, 0.0253 for the second.

Compared with AGGAGGAC, CGAACACC is higher in “PBM E-score” value: -0.309 for the first, -0.104 for the second.

Going from CATAGTTC to CAATGGGG, the “PBM E-score” value falls from 0.124 to -0.0677.

First: CTGGGGGA
Second: TCCGTAGA
The “PBM E-score” value of the first is lower: -0.407 for the first, -0.125 for the second.

Compared with TAAACCTA, CAGGCTTA is lower in “PBM E-score” value: -0.01 for the first, -0.034 for the second.

Compared with AGTGGAAC, CTGGGTAC is lower in “PBM E-score” value: -0.142 for the first, -0.154 for the second.

Compared with AGCGAACC, AGGTCACT is lower in “PBM E-score” value: -0.108 for the first, -0.184 for the second.

Compared with ACGGTAGG, ACGGTTGG is higher in “PBM E-score” value: -0.157 for the first, -0.106 for the second.

First: CGACCCCA
Second: CTCAACCA
The “PBM E-score” value of the first is lower: -0.138 for the first, -0.122 for the second.

First: AGGCTAGA
Second: CTGTCTGC
The “PBM E-score” value of the first is higher: -0.146 for the first, -0.167 for the second.

Compared with CCTTCTAG, ACTAGGCT is lower in “PBM E-score” value: 0.0376 for the first, 0.0216 for the second.

First: CACGCACC
Second: ACCAGTAC
The “PBM E-score” value of the first is higher: -0.0142 for the first, -0.0511 for the second.

Going from GATATAGA to CATACGGC, the “PBM E-score” value falls from -0.0457 to -0.11.

First: AGGGCGCC
Second: AATCATCC
The “PBM E-score” value of the first is lower: -0.164 for the first, -0.019 for the second.

Compared with AAACCGTA, ATTCGCTA is higher in “PBM E-score” value: -0.0686 for the first, -0.0341 for the second.

First: ATGATCTA
Second: CGATAGCA
The “PBM E-score” value of the first is higher: 0.142 for the first, -0.159 for the second.

Going from CTCATCAA to GAGGCAAA, the “PBM E-score” value rises from 0.0556 to 0.328.

Compared with AAGACGAG, CGATGATC is lower in “PBM E-score” value: 0.0142 for the first, -0.114 for the second.

Compared with ATGTCACG, AGGGAGGC is lower in “PBM E-score” value: 0.175 for the first, -0.0529 for the second.

Going from ACTCGCGG to GTGGCCAC, the “PBM E-score” value falls from -0.045 to -0.155.

First: AGCGTTGA
Second: GACGGTGC
The “PBM E-score” value of the first is lower: -0.0446 for the first, 0.0469 for the second.

Going from AATCCCTG to GCAGGGTA, the “PBM E-score” value rises from -0.179 to -0.0563.

Compared with TGGACACA, ATGAGGTG is lower in “PBM E-score” value: 0.0857 for the first, -0.0399 for the second.

First: AAGCCAGT
Second: AGTCGATG
The “PBM E-score” value of the first is higher: 0.0268 for the first, -0.138 for the second.

First: ACTGGAAC
Second: TTTATAAA
The “PBM E-score” value of the first is lower: -0.119 for the first, 0.261 for the second.

First: ACGATAAC
Second: ACTACACT
The “PBM E-score” value of the first is lower: 0.00207 for the first, 0.181 for the second.

Compared with ATCGCTCG, AAGCCCCG is higher in “PBM E-score” value: -0.231 for the first, 0.0651 for the second.

Going from AATTTGAC to GACTCAGA, the “PBM E-score” value falls from 0.0529 to -0.197.

Going from CAGACCAC to TACCGAGA, the “PBM E-score” value falls from -0.109 to -0.141.

Compared with GCAGAGAC, GAGTACGC is higher in “PBM E-score” value: -0.312 for the first, -0.0748 for the second.

Going from TTGAGCAA to GAGGTTGA, the “PBM E-score” value falls from -0.0983 to -0.187.

Compared with CGGTTAAA, ACTGCATC is lower in “PBM E-score” value: 0.0445 for the first, -0.107 for the second.

Going from CCTAGCGA to ATTATAAA, the “PBM E-score” value rises from -0.225 to 0.0362.

Compared with TCCAGAGA, CCGATACC is higher in “PBM E-score” value: -0.156 for the first, -0.0199 for the second.

Going from TCAATAAA to AGAGGACC, the “PBM E-score” value falls from -0.00436 to -0.226.

First: CTTTTGGA
Second: GGTTTTGA
The “PBM E-score” value of the first is lower: -0.124 for the first, -0.00186 for the second.

First: GGTTCAGA
Second: AGTGCGAT
The “PBM E-score” value of the first is lower: -0.182 for the first, -0.00843 for the second.

First: TCTGCCCA
Second: ACCATCTC
The “PBM E-score” value of the first is lower: -0.168 for the first, -0.114 for the second.

Compared with CCCTCACA, AACCTTGG is higher in “PBM E-score” value: -0.147 for the first, -0.0639 for the second.

Going from CGCATTAA to CCTCCTGC, the “PBM E-score” value falls from 0.151 to -0.096.

Compared with ACCACCGA, CGACAAAA is higher in “PBM E-score” value: -0.1 for the first, 0.043 for the second.

Compared with CTGGACAA, CAACCCAG is higher in “PBM E-score” value: -0.0433 for the first, -0.0379 for the second.

Compared with ATCTCCTG, CCCACCGC is lower in “PBM E-score” value: -0.0112 for the first, -0.157 for the second.

Going from GACCTCAA to CAGCGAAG, the “PBM E-score” value rises from -0.166 to -0.0546.

Going from TCTCTAAA to GCGGCGCC, the “PBM E-score” value rises from -0.133 to -0.0759.

Going from CAACCGAG to GCACGCCA, the “PBM E-score” value rises from -0.178 to 0.00827.

Going from ATTGTTCG to GCTCGAAA, the “PBM E-score” value falls from 0.159 to -0.286.

Compared with AAAGAACT, GCATGGTA is lower in “PBM E-score” value: 0.0647 for the first, 0.054 for the second.

Compared with CTTCACGA, AGTATCGC is higher in “PBM E-score” value: -0.268 for the first, -0.102 for the second.
